In publication PMC4336329 (PLoS ONE, 2015):
Out of some 310,000 compounds screened, about 14,000 (4.5%) showed an effect of 50% or more. Effects have a minus sign here. This is one part of the list.

Target: human ether-à-go-go-related gene (hERG) potassium channel (human, UniProt Q12809)
Experiment: primary screen, population patch clamp on CHO cells stably expressing hERG
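Also: peak tail current of the secondary pulse compared with the same well before compound.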

human ether-à-go-go-related gene (hERG) potassium channel, sequence (Q12809 whole entry, looked up): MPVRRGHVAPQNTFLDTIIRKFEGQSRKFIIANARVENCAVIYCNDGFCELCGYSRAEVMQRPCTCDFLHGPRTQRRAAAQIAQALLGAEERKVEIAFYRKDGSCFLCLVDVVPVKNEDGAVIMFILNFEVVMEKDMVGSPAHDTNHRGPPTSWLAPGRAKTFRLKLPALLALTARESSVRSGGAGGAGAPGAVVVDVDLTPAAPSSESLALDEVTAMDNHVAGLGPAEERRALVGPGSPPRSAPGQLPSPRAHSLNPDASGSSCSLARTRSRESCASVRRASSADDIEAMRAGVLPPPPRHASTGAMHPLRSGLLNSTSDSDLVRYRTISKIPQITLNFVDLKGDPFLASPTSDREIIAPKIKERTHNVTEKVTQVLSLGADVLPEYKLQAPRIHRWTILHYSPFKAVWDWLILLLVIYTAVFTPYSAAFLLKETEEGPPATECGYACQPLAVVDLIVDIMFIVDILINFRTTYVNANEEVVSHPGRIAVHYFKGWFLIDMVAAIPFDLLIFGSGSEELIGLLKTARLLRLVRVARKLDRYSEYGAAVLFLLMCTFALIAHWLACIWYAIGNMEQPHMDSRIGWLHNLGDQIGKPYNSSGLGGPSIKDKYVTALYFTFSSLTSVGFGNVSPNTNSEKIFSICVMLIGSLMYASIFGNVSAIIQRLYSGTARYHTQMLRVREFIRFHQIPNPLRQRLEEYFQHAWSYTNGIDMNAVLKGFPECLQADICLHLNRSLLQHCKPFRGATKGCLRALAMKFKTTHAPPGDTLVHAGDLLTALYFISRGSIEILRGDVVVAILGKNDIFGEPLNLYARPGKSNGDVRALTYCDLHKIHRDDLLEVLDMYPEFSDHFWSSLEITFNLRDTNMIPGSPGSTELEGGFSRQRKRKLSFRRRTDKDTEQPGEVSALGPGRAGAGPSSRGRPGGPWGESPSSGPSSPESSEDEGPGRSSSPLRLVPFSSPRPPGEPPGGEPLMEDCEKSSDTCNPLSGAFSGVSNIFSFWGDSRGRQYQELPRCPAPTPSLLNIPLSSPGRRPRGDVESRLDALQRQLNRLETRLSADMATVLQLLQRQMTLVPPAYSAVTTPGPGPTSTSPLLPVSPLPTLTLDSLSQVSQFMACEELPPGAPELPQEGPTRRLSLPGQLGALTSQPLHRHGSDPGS

SMILES | hERG current change (%, negative = inhibition) at 10uM
COc1ccc(OC)c(S(=O)(=O)Nc2cc3c4c(c2)C(C)C(=O)N4CCC3)c1 (stereo not shown) | 1.75%
Cc1ccc(-c2cc(C(=O)N3CC4(C)CC3CC(C)(C)C4)no2)cc1 (stereo not shown) | -2.1%
Cc1cccc(NC(=O)c2ccc(OCC(=O)NCc3ccccc3)cc2)c1C | 2.51%
CCC(=O)Nc1cc(C(F)(F)F)ccc1N1CCOCC1 | 1.09%
O=S(=O)(NC1CC1)c1cccc(S(=O)(=O)N2CCCC2)c1 | -1.49%
CC(=O)Nc1cc(C(=O)OCc2cccc([N+](=O)[O-])c2)ccc1C | -4.3%
CC(Sc1nnc(C2CC2)n1C1CC1)C(=O)Nc1cccc(S(=O)(=O)N2CCOCC2)c1 (stereo not shown) | -11.8%
CCOCCCNS(=O)(=O)c1ccc(-n2cnnn2)c(OC)c1 | -1.04%
Cc1ccc(S(=O)(=O)c2nc(-c3ccco3)oc2SC(C)C)cc1 | -20.4%
COc1ccc(CNC(=O)C2CC(=O)N(c3ccc(OCC(=O)N4CCCCC4)cc3)C2)cc1 (stereo not shown) | -0.626%
O=C(O)c1cc(NN=Nc2cccc([N+](=O)[O-])c2)cc([N+](=O)[O-])c1 | 2.18%
CC1CCCC(C)N1CCCNC(=O)Cn1ncc2c([nH]c3ccccc32)c1=O (stereo not shown) | 12.3%
O=C1CSC(c2ccco2)N1 (stereo not shown) | 22.9%
O=C(CN1CCN(S(=O)(=O)c2ccccc2F)CC1)Nc1ccccc1C(=O)c1ccccc1 | -22.8%
CCN(CCCNC(=O)c1[nH]c(C)c(C(C)=O)c1C)c1cccc(C)c1 | -18.2%
CCn1nnc(-c2ccccc2NC(=O)c2cc(OC)c(OC)c(OC)c2)n1 | 4.71%
Cc1ccc(S(=O)(=O)Cn2nnnc2C(CC(C)C)N2CCN(c3ccc(F)cc3)CC2)cc1 (stereo not shown) | 0.86%
Cc1cc(C(F)(F)F)nc(NCc2cccnc2)n1 | 14.9%
CC1CCN(CCc2nc3cc(NS(=O)(=O)c4ccc(F)cc4)ccc3n2C)CC1 | -70.8%
Cn1cncc1C#Cc1c(C=O)n(C)c2ccccc12 | 19.8%
CC(C)Oc1cccc(C(=O)C2CCCN(C(=O)c3ccnn3C)C2)c1 (stereo not shown) | 2.49%
CCN(CC(=O)NC(=O)NCc1ccccc1)Cc1ccccc1 | -20.6%

SMILES | hERG current change (%, negative = inhibition) at 10uM
CN(C)c1nc(N)nc(CSc2ncc(Cl)cc2Cl)n1 | -3.36%
CC(C)CNC(=S)N1CCN(c2nc(-c3ccc(Cl)cc3)cs2)CC1 | 17.2%
COc1cc(C2C(C(C)=O)=C(O)C(=O)N2c2ccc(Br)cn2)ccc1O (stereo not shown) | -8.43%
Cn1c(=O)c2c(nc(Oc3ccc4ccccc4c3)n2C)n(C)c1=O | 6.03%
CC(=O)c1ccccc1NC(=O)c1ccc(N2CCCC2=O)cc1 | -1.78%
Fc1ccc(NCc2cccnc2)cc1F | 12.2%
Cc1ccc(-n2nc(C(=O)N3CCOCC3)cc2-c2ccc(Cl)cc2)cc1 | -83.3%
O=C(O)c1ccccc1C(=O)Nc1ccccn1 | 6.84%
O=C(Nc1ccon1)c1ccc(Cl)s1 | 10.4%
O=C(O)C(=O)O.Oc1ccccc1CN1CCN(C(O)(c2ccccc2)c2ccccc2)CC1 | -46%
Cc1cc2c(c(SCC(N)=O)n1)C(=O)OC2 | 14.9%
OC(CN1CCN(c2ccccc2Cl)CC1)c1ccccc1 (stereo not shown) | -42.3%
O=C(COC(=O)CC1Sc2ccccc2NC1=O)NCc1ccccc1 (stereo not shown) | -21.4%
O=C(Nc1nn[nH]n1)c1cccc([N+](=O)[O-])c1 | -9.99%
Oc1ccc(N=Nc2n[nH]c(-c3ccccc3)n2)cc1 | 9.94%
Nc1c(C(=O)NCCN2CCOCC2)c2nc3ccccc3nc2n1-c1ccc2c(c1)OCO2 | -33.5%
Cc1sc2c(c1C)CN(Cc1ccncc1)CN2C(=O)c1ccco1 | -37.5%
C[C@]12CC[C@H](O)C[C@H]1CC[C@@H]1[C@@H]2C[C@@H](O)[C@]2(C)[C@@H](C3=CC(=O)OC3)CC[C@]12O | 18.3%
C/C=C(/C)C(=O)OC1Cc2c(ccc3ccc(=O)oc23)OC1(C)C (stereo not shown) | -18%
COC(=O)c1cc(NC(=O)c2ccccc2)c(=O)oc1C | 19.4%
COc1ccc(C(=O)c2nccc3cc(OC)c(OC)cc23)cc1OC | 6.21%
O=C(O)CCC1(c2ccccc2)NC(=O)NC1=O (stereo not shown) | 2.53%

SMILES | hERG current change (%, negative = inhibition) at 10uM
Cn1nnnc1SCC(=O)Nc1ccc(Cl)cn1 | 19%
CCOC(=O)c1cnc(-n2cc(C)cn2)nc1Nc1ccccc1OCC | 14%
O=C(Nc1ccccc1)c1ccccc1NC(=O)c1ccccc1C(=O)O | 8.6%
Cc1cc(C(=O)O[C@H]2[C@H](Cc3ccccc3)NS(=O)(=O)[C@H]3C[C@@H]4C=C[C@]23O4)ccc1[N+](=O)[O-] | -1.67%
Cc1ccc(S(=O)(=O)Nc2nc3ccc(N)cc3s2)cc1 | -1.87%
Cc1ccc(S(=O)(=O)N2CC(O)CC2C(=O)Nc2ccc3c(c2)CCC3)cc1 (stereo not shown) | -12.3%
C=CCN1C(=O)C2(NNc3ccccc3O2)c2ccccc21 (stereo not shown) | 14.8%
CCn1c(SCCC(=O)O)nnc1-c1cccnc1 | 4.65%
COCC(C)NC(=O)C1CCN(S(=O)(=O)c2ccc3ccccc3c2)CC1 (stereo not shown) | -18.8%
COC(=O)/C=C1/N/C(=N\c2nc(C)cc(C)n2)N(c2ccccc2)C1=O | 11.9%
O=C(COc1ccc([N+](=O)[O-])cc1)NN=C1CCCC1 | -33.2%
COc1ccccc1NS(=O)(=O)c1ccc(C(=O)NCC(c2ccccc2OC)N(C)C)cc1 (stereo not shown) | -0.121%
Cc1ccc(-n2cc(CCCCCCCCC(=O)O)nn2)cc1 | -12.3%
Cc1ccc(NC(=O)COC(=O)[C@H](C)N2C(=O)C3CC=CCC3C2=O)cc1S(=O)(=O)N(C)C (stereo partly shown) | -7.63%
CCOC(=O)c1cccc(NC(=O)C2CCN(S(=O)(=O)c3cccs3)CC2)c1 | -27.9%
Nc1cc(C(=O)OCC(=O)NCCNC(=O)COC(=O)c2ccc(Cl)c(N)c2)ccc1Cl | 5.57%
COCCNC(=O)c1ccccc1-c1nc(-c2ccccc2OC)no1 | -0.723%
CC(C)(C)CC(=O)Nc1ccccc1N1CCN(c2ccccc2)CC1 | -10.1%
O=C(c1ccc2nccnc2c1)N1CCCC(N2CCN(c3ccc(F)cc3)CC2)C1 (stereo not shown) | -9.66%
Cc1cc(OC(C)C(=O)NCCc2c[nH]c3ccccc23)c2c(C)cc(=O)oc2c1 (stereo not shown) | -26.9%
CN(Cc1ccccc1)C(=O)c1[nH]cnc1C(=O)Nc1ccccc1 | 13.5%
Cc1nnc(SC(C)C(=O)Nc2ncc(Cl)cc2Cl)n1Cc1ccccc1 (stereo not shown) | -67.8%

SMILES | hERG current change (%, negative = inhibition) at 10uM
CCn1c(CNc2cccc(C(F)(F)F)c2)n[nH]c1=S | 16.6%
Cc1cccc(C(=O)N/N=C/c2ccc(OC3CSC3)cc2)c1 | -92.4%
CCN(C(=O)CSc1nc2nc(C)cc(C)n2n1)c1cccc(C)c1 | -0.467%
Cc1nc2cc(F)ccc2n1C1CCN(S(=O)(=O)c2ccccc2)CC1 | -48.6%
Cc1cc(C)c2cc(C(=O)N3CCC(N4CCCCC4)CC3)[nH]c2c1 | -69.2%
Nc1nnc(SCC(=O)c2ccc3ccccc3c2)s1 | 1.25%
COC(=O)C1=CN(Cc2ccccc2)C=C(C(=O)OC)C1c1cc(F)ccc1F | -12.6%
Cc1cccc(N(C(=O)c2sc(C)nc2C)C(C(=O)NCc2ccco2)c2ccccc2)c1 (stereo not shown) | -4.88%
CC(=O)NCCC1CCN(c2nc3nonc3nc2N(C)Cc2ccccc2)CC1 | -49%
C/C=C/C=C/C(=O)OCC(=O)Nc1ccc(Cl)cc1 | 21.3%
Cn1nccc1C(=O)N1CCc2ccccc21 | 0.827%
OCC[C@@H]1C[C@H](O)[C@@H](O)[C@@]2(Cc3ccccc3CO2)O1 | 9.18%
CCc1cc(=O)[nH]c(SCCCF)n1 | -50.2%
COc1cccc(CN2CCC(CO)(CC3CCCCO3)CC2)c1 (stereo not shown) | 1.32%
CCCCc1c(O)nc(SC2CC(=O)N(c3ccc(C(=O)OCC)cc3)C2=O)[nH]c1=O (stereo not shown) | 0.334%
O=C1CSC(c2cn(-c3ccccc3)nc2-c2cccs2)N1CC1CCCO1 (stereo not shown) | -17.9%
COc1ccc2c(-c3ccccc3)cc(SCC(N)=O)nc2c1 | 4.04%
Cn1c2ccccc2c2cnn(CC(=O)O)c(=O)c21 | 13.4%
CC(NC(=O)c1ccc(Cl)c(Cl)c1)c1ccc(-c2ccccc2)cc1 (stereo not shown) | 17.6%
COc1ccccc1N1CCN(C2CCCN(C(=O)c3csc(C)n3)C2)CC1 (stereo not shown) | -9.96%
N#Cc1nc(-c2ccco2)oc1NCCCn1ccnc1 | -19.7%
Cc1ccc(NS(=O)(=O)c2ccc(CCC(=O)NCc3ccccn3)cc2)cc1 | 13%
